# Laboratory results as given in PubChem BioAssay (NCATS).
# The shares of active, inactive and inconclusive entries below differ from those in the screen. Potencies of inconclusive entries are doubtful fits and often do not repeat. Activity calls are given as the source filed them. Unless noted, calls follow the shape of the dose curve; as a rule, active = well fitted curve in the direction sought with a large enough effect; inconclusive = small, poorly fitted or top-dose-only effect, or another doubt; inactive = no such curve, though single readings can be large; an effect the other way counts as inactive or inconclusive.
# Columns and labels:
# [1] = qHTS Assay for Identification of Small Molecule Agonists for Hypoxia Response Element Signaling Pathway (AID 914; active = well fitted activation curve with a large enough effect in the signal ratio, with a control signal flat, not every such curve was filed as active; inconclusive = small, poorly fitted or top-dose-only effect, or effect the other way, or a change in a side signal; the % refers to the signal ratio; as to activation: top concentration of the series differs between compounds; % of control where 0% means no effect); conditions: ME-180 (cervical carcinoma) HRE-bla reporter, beta-lactamase ratio, CoCl2, 17 h; activation: active compounds read high
# Summary of the method: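 AC50 values come from titration-series %Activity, taken as the 460/530nm ratio of CCF4 fluorescence (excitation 405nm). CellSensor HRE-bla ME-180 cells were treated 17 hours at 37 C with compound plus an EC50 level of CoCl2.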
# [2] = Quantitative high throughput screen for delayed death inhibitors of the malarial parasite plastid, 96 hour incubation (AID 488745); also: nearly all actives have a fitted effect of over 70% in size
# Summary of the method: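 Infected erythrocytes were added to compound in Albumax-supplemented RPMI 1640 at 0.1% parasitemia and 2% hematocrit (final), incubated 96 h at 37 C under 5% CO2, then luciferase reagent was added and luminescence measured.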
# [3] = Quantitative high throughput screen for delayed death inhibitors of the malarial parasite plastid, 48 hour incubation (AID 488752); also: nearly all actives have a fitted effect of over 65% in size
# Summary of the method: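 Readout is firefly luciferase luminescence from a reporter integrated into the parasite genome, with lower signal taken as inhibited growth. Infected red cells (0.1% parasitemia, 2% hematocrit final) are cultured with compound for one 48 h cycle at 37 C.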
# [4] = Nrf2 qHTS screen for inhibitors: Validation (AID 493153; active = well fitted inhibition curve with a large enough effect in the main read-out, with a control signal flat, not every such curve was filed as active; inconclusive = small, poorly fitted or top-dose-only effect, or effect the other way, or a change in a side signal; inactive = no such curve, though single readings can be large or run the other way)
# Summary of the method: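 Luminescence from an ARE-firefly luciferase reporter in A549 cells gives Nrf2 inhibition; an earlier CellTiter-Fluor fluorescent read flags cytotoxicity. Cells in 5% FBS OPTI-MEM received compound dilution series for 18-24 h at 37°C.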
# [5] = molecular target: N-terminal Xaa-Pro-Lys N-methyltransferase 1 (Homo sapiens) (UniProt Q9BV86); assay: qHTS Assay for Inhibitors of N-terminal methyltransferase 1 (NTMT1): LOPAC validation of the NTMT1 SAHH-coupled ThioGlo3 Assay (AID 1347143);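 also: SAH from peptide methylation measured as thiol fluorescence via SAHH coupling and ThioGlo3; nearly all actives have a fitted effect of over 70% in size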
# Summary of the method: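 Recombinant human NTMT1 (125nM) was pre-incubated 1 min at room temperature with compounds over a concentration range, then a mix of 100uM SAM, 10uM SAHH and 15uM ThioGlo3 (concentrations in added reagent) was added. ThioGlo3 fluorescence (ex 340/em 450nm) after 30 min was normalized to the initial reading.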
# [6] = molecular target: Lysine-specific demethylase 5B (Homo sapiens) (UniProt Q9UGL1); assay: Optimization screen for KDM5B Histone Demethylases FDH coupled qHTS against the LOPAC library (AID 1347166); conditions: KDM5B demethylation, FDH-coupled NADH fluorescence (FDH is formaldehyde dehydrogenase); activity, negative = inhibition: at 57.5 µM (top of the series) unless noted; as to activity, negative = inhibition: 0% is about no effect
# Summary of the method: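 KDM5BDeltaAP (200nM final) preincubated 10 min with compound, then 12.5uM H3K4Me3, 25uM a-ketoglutarate, ascorbate, Fe(II), NAD+ and FDH added; 50mM HEPES pH 7.5, 0.01% Tween-20. NADH fluorescence (340/450 nm) change over 30 min, room temperature.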
# [7] = molecular target: Chromobox protein homolog 1 (Homo sapiens) (UniProt P83916); assay: qHTS Validation Assay for Inhibitors of HP1-beta Chromodomain Interactions with Methylated Histone Tails (AID 488953); also: nearly all actives have a fitted effect of over 50% in size
# Summary of the method: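 50 nM HP1-beta + 50 nM biotin-H3(1-18)K9me3, PBS pH 7.4, 0.01% Tween-20, 30 min RT; compound added, 30 min RT; AlphaScreen beads 10 ug/mL final, 30 min dark; luminescence read.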
# Potency is read from the fitted curve at half-maximal effect; tags tell the direction and shape of the fitted curve or compound fluorescence and quenching.
# UniProt Q9BV86, sequence (Q9BV86 whole entry, looked up): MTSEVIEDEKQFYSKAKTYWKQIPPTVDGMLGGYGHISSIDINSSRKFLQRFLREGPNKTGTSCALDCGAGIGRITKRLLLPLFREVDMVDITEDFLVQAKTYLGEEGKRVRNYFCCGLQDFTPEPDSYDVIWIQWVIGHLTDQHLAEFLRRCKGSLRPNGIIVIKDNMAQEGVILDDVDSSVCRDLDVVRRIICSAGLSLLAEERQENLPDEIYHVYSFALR
# UniProt P83916, sequence (P83916 whole entry, looked up): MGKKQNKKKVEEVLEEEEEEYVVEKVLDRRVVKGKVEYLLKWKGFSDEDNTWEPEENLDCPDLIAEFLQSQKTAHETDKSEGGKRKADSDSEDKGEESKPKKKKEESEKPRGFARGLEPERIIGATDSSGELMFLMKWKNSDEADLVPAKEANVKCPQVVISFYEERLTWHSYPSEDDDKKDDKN
# UniProt Q9UGL1, sequence (Q9UGL1 whole entry, looked up): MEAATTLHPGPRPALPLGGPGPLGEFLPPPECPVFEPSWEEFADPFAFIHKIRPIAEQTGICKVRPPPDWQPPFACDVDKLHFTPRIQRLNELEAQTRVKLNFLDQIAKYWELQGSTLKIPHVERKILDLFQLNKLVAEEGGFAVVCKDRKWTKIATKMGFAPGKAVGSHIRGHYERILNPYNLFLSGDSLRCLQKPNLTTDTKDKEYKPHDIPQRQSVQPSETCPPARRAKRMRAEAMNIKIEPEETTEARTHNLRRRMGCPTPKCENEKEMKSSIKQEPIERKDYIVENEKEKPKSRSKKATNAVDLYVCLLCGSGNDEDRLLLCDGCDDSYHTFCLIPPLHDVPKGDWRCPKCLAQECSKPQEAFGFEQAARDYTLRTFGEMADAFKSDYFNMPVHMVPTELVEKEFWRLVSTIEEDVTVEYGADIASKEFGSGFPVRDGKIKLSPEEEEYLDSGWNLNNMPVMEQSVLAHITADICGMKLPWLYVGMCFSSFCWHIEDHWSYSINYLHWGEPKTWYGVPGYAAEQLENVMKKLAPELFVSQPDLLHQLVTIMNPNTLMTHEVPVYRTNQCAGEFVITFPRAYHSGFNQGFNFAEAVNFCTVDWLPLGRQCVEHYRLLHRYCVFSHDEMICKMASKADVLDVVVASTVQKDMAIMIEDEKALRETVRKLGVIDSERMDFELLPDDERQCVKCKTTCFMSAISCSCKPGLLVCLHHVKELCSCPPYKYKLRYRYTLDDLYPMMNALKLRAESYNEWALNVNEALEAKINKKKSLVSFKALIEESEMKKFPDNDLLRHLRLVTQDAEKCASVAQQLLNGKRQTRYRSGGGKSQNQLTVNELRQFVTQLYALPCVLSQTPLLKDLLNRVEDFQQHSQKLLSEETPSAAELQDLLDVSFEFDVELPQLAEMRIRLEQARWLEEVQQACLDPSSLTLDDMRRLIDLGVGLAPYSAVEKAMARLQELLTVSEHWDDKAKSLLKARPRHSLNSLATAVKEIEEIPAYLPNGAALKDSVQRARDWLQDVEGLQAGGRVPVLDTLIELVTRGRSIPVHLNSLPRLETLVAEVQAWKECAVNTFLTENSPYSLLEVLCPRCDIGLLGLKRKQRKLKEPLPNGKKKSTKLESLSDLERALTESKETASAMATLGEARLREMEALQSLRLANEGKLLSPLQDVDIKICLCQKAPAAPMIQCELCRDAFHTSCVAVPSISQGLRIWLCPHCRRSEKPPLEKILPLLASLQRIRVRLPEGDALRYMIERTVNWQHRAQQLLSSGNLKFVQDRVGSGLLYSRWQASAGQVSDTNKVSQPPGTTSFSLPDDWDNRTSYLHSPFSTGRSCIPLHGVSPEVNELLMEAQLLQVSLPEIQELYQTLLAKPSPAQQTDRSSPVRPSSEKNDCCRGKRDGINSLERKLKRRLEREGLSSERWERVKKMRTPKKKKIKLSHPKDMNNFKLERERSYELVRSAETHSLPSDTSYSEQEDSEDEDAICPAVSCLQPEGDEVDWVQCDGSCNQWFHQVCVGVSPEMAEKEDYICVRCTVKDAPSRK
smiles,measurement,setting,value
CCCCCCN(CCCCCC)C(=O)Cc1c(-c2ccc(F)cc2)[nH]c2ccccc12,Potency,[1],"inconclusive: 25.1 µM [inhibitor, partial curve, poor fit]"
same,Potency,[2],active: 3.7 µM
same,Potency,[3],active: 5.22 µM
same,Potency,[4],"inconclusive: 16.4 µM [inhibitor, partial curve, poor fit]"
same,Potency,[5],active: 79.4 µM
same,Potency,[6],"inconclusive: 35.5 µM [inhibitor, partial curve, poor fit]"
NCC(O)C1CCCCCCC1 (stereo unspecified),Potency,[2],inactive
same,Potency,[3],"inconclusive: 4.15 µM [inhibitor, single point]"
same,Potency,[4],inactive
same,Potency,[5],"inconclusive: 50.1 µM [inhibitor, partial curve]"
same,Potency,[6],inactive
O=C(O)C1=CCCNC1,Potency,[7],"inconclusive: 5.97 µM [inhibitor, single point]"
same,Potency,[5],"inconclusive: 50.1 µM [inhibitor, partial curve]"
COc1ccccc1N1CCN(CCCNc2c(C)c(=O)n(C)c(=O)n2C)CC1,Potency,[1],"inconclusive: 15.8 µM [inhibitor, partial curve]"
same,Potency,[2],active: 14.7 µM
same,Potency,[3],"inconclusive: 10.4 µM [inhibitor, single point]"
same,Potency,[7],"inconclusive: 0.0474 µM [inhibitor, full curve]"
O=C(O)c1ccccc1Nc1cccc(OCc2ccc3ccccc3n2)c1,Potency,[1],"inconclusive: 31.6 µM [activator, single point]"
same,Potency,[7],"inconclusive: 44.7 µM [inhibitor, partial curve]"
same,Potency,[5],"inconclusive: 56.2 µM [inhibitor, partial curve]"
Cn1c(=O)c2[nH]c(-c3ccccc3)nc2n(C)c1=O,Potency,[4],"inconclusive: 14.6 µM [inhibitor, partial curve, poor fit]"
same,Potency,[6],"inconclusive: 25.1 µM [inhibitor, partial curve, poor fit]"
NCCNS(=O)(=O)c1cccc2c(Cl)cccc12,Potency,[2],"inconclusive: 18.5 µM [inhibitor, single point]"
same,Potency,[3],"inconclusive: 10.4 µM [inhibitor, partial curve]"
same,Potency,[5],"inconclusive: 56.2 µM [inhibitor, partial curve]"
COc1cc(-c2ccc(N=Nc3ccc4c(S(=O)(=O)O)cc(S(=O)(=O)O)c(N)c4c3O)c(OC)c2)ccc1N=Nc1ccc2c(S(=O)(=O)O)cc(S(=O)(=O)O)c(N)c2c1O,Potency,[1],"inconclusive: 6.31 µM [inhibitor, partial curve, poor fit]"
O=c1[nH]c(=S)[nH]c(-c2ccccc2)c1Cc1c(O)ccc2ccccc12,Potency,[1],"inconclusive: 3.16 µM [inhibitor, single point]"
same,Potency,[4],"inconclusive: 32.6 µM [inhibitor, partial curve, poor fit]"
Cc1c2ccccc2c(CSC(=N)N)c2ccccc12,Potency,[1],"inconclusive: 0.251 µM [inhibitor, partial curve]"
O=C(Nc1cc(C(=O)Nc2ccc(S(=O)(=O)O)cc2S(=O)(=O)O)cc(C(=O)Nc2ccc(S(=O)(=O)O)cc2S(=O)(=O)O)c1)Nc1cc(C(=O)Nc2ccc(S(=O)(=O)O)cc2S(=O)(=O)O)cc(C(=O)Nc2ccc(S(=O)(=O)O)cc2S(=O)(=O)O)c1,activation,[1],inconclusive: -36.1%
same,Potency,[2],inactive
